“And” between values parts separate entries of the source, which are not always exact repeats. Identical values can stand only once.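 Compound exposure: 48 hours, 5 concentrations, 96-well plates. GI50 is the concentration that inhibits growth by half. Definition used: TGI = concentration required for complete inhibition of growth.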
Tested on: NCI-H322M lung
Assay: growth of human tumour cells (NCI), 48 h

| SMILES | TGI | GI50 [µM] |
| --- | --- | --- |
| Cc1nn(-c2ccccc2)c2nc3c(c(C)nn3-c3ccccc3)c(-c3ccccc3Br)c12 | > 100 µM | – |
| CC(C)[Si](OCC/C=C/C1CCC(=O)C1C(O)C1CCCCC1)(C(C)C)C(C)C (configuration not stated) | 28.8 µM | – |
| CCC12CC[C@H](C#N)N3CCc4c(n(c5ccccc45)C(=O)C1)C32 (some centres not stated) | 44 µM | – |
| N#CC(c1ccc(Cl)cc1)c1cccc(Cl)n1 (configuration not stated) | > 100 µM | – |
| CN1CCN(Cc2ccc(NC(=O)c3[nH]ncc3Nc3ccnc4ccsc34)cc2)CC1 | 12.8 µM | 2.53 |
| Cc1c2c(cc3c1[nH]c1ccccc13)C(c1ccc(F)cc1)=NCC2 | 6.79 µM | – |
| C/C=C/C/C=C/CCC(=O)C1OC1C(N)=O (configuration not stated) | 34.5 µM | – |
| COc1cc(N)ccc1Nc1c2ccccc2nc2ccccc12 | 33 µM | 17.2 |
| CC[N+](CC)(CC)Cc1cn(S(=O)(=O)c2ccccc2)c2ccccc12 | > 100 µM | – |
| Cc1cc2c(cc1C)[n+](=O)c(C(=O)c1cccs1)c(C(F)(F)F)n2[O-] | 4.26 µM and 9.45 µM | – |
| Cc1nc(Cl)c(C)c(Cl)n1 | > 100 µM | – |
| N=C(N)C(N=Nc1ccccc1)C(=N)N (configuration not stated) | > 100 µM | – |
| O=C(Nc1cccc(-c2nc3ccccc3[nH]2)c1)c1cccc(NC(=O)c2ccco2)c1 | 8.13 µM | 2.91 |
| O=C(/C=C\c1cccc2ccccc12)c1ccc(Br)cc1 | > 100 µM | – |
| Nc1ccccc1C(=O)NNC(=O)c1ccccc1N | > 100 µM | – |
| COc1ccc(C(=O)O)c2c(=O)c3ccccc3[nH]c12 | > 100 µM | – |
| c1cncc(-c2cc(-c3cc(-c4cccnc4)n[nH]3)[nH]n2)c1 | > 100 µM | – |
| OC1OC(c2ccc[nH]2)C(F)(F)C(F)(F)C1(F)F (configuration not stated) | > 100 µM | – |
| O=C1CS(=O)(=O)C(c2cccc(Oc3ccccc3)c2)N1c1cccc(Cl)c1Cl (configuration not stated) | > 100 µM | – |
| CN1CCC23c4ccccc4NC1C21CCN(C)C3Nc2ccccc21 | > 234 µM | – |
| CCCCC1Cc2cc(OC)ccc2-c2nc3cc(OC)ccc3n21 (configuration not stated) (tested in a mixture with another compound) | 33.8 µM | – |
| Clc1cccc(Cl)c1C1SCc2nc3cc4ccccc4cc3n21 (configuration not stated) | > 100 µM | – |

| SMILES | TGI | GI50 [µM] |
| --- | --- | --- |
| Cn1cc(C(=O)/C(Cl)=C(\Cl)C(=O)O)c2ccccc21 | > 100 µM | – |
| C=C(CO)[C@H]1CC/C(C)=C/CC/C(C)=C/C/C=C(\C)[C@H](O)C1 | > 100 µM | – |
| C=C1C(C2(C)C=CC(=O)OC3(C)COC(=O)CC32)C(OC=O)C(OC(=O)C(O)C(C)CC)C2(C)C(c3ccoc3)CC(OC(C)=O)C12O (configuration not stated) | > 100 µM | – |
| Fc1ccc(Nc2ccc3cc(OCCCN4CCOCC4)ccc3n2)cc1F | > 100 µM | 7.22 |
| O=C1OC2(c3ccccc31)c1cc(I)c(O)c(I)c1Oc1c2cc(I)c(O)c1I | > 100 µM | – |
| C1=Cc2nc1c(-c1ccccc1)c1ccc([n-]1)c(-c1ccccc1)c1nc(c(-c3ccccc3)c3ccc([n-]3)c2-c2ccccc2)C=C1.[Zn+2] | > 100 µM | – |
| O=C(O)C(Cc1ccccc1)N1C(=O)c2ccccc2C1=O (configuration not stated) | > 100 µM | – |
| CCOC(=O)C(NC(=O)NCc1ccc(F)cc1)C(F)(F)F (configuration not stated) | > 100 µM | – |
| CNC(=O)C(C)NC(=O)C(Cc1ccccc1)NC(=O)OC(C)(C)C (configuration not stated) | > 100 µM | – |
| Cc1nc2c(s/c(=N\N)n2-c2ccccc2)c(=O)[nH]1 | > 100 µM | – |
| CC1(C)CC2=NOS3=C2C(=NO3)C1c1ccccn1 (configuration not stated) | > 100 µM | – |
| C[C@]12CC[C@@H]3c4ccc(OCC(=O)O)cc4CC[C@H]3[C@@H]1CCC2=O | > 100 µM | – |
| CN(C)c1cccc(-c2cc(=O)c3cc4c(cc3[nH]2)OCO4)c1 | > 100 µM | – |
| Cc1cc(C)n(C(=O)C(C)Sc2nnc(SC(C)C(=O)n3nc(C)cc3C)s2)n1 (configuration not stated) | > 100 µM | – |
| CC(C)C1=CC(=O)C(C)(C2=NC(C)(C)CO2)c2ccccc21 (configuration not stated) | > 100 µM | – |
| CC(=O)NC(Cc1c[nH]c2ccccc12)C(=O)O (configuration not stated) | > 100 µM | – |
| CC(=O)NNc1nc(C)c(C(/C=C/c2ccccc2O)=N/NC(=O)c2ccncc2)s1 | > 100 µM | – |
| O=C(CCc1ccc(O)c(O)c1)c1ccc(O)c(O)c1O | > 100 µM | – |
| NC(=O)CC1(O)C=CC(=O)C=C1 | > 100 µM | – |
| COc1ccc(-c2cc(=O)c3c(O)c(OC)c(O)cc3o2)cc1O | > 81.8 µM | – |
| COc1ccc2cc(CNCCCN3CCN(CCCNCc4ccc5cc(OC)ccc5c4)CC3)ccc2c1 | 3.13 µM | – |

Reference: PubChem BioAssay (NCI)
